The target of assay [1] is RbBP5 full-length (aa 1-538), from E. coli (UniProt Q15291). Kind of assay: pull-down; GST-MLL1 proteins with RbBP5 constructs at 1:2 molar ratio, 4 °C 1 h, then glutathione-Sepharose 1 h; 20 mM Tris pH 7.7, 150 mM NaCl, 10 μM ZnCl2, 5 mM β-mercaptoethanol, 5 mM DTT, 1 mM PMSF; eluted with 30 mM reduced glutathione, SDS-PAGE and Coomassie. The following applies: both partners purified.

In another assay the target is RbBP5-NTD (aa 10-340) (UniProt Q15291 10-340). Described as above. Particulars: both partners purified.

B1: GST-MLL1-SET (human MLL1 […]) (domain or fragment)
chain: not shown
notes: MLL1 (mixed lineage leukemia protein 1), human, […]: RBS segment and SET domain; In the pull-down the GST tag is kept (bait on glutathione-Sepharose); also called MLL1-SET-GST; source: E. coli BL21(DE3) codon plus RIL, purified (GST fusion); not shown: GST, N-terminal, kept
For B1, the binding result (in assay [1]; in the assay with RbBP5-NTD (aa 10-340)) was “binds” each time.

The values are drawn from publication doi:10.1101/308676, “MLL1 minimal catalytic complex is a dynamic conformational ensemble susceptible to pharmacological allosteric disruption” (bioRxiv, 2018).
